The full ranking holds about 110,000 compounds; the median of “z-score” is about -0.1, and the highest 2% start at about 2. Some of the results follow. Calls of active or inactive are those of the source.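 The calls were made as follows: active = z-score in the third read window above 3 or below -3; inactive = the rest.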

The target of the assay is Metabotropic glutamate receptor 8 (Rattus norvegicus) (UniProt P70579). Put plainly: mGluR8 Gi/Go-coupled signaling modulation – cell-based, rat, thallium flux, HTS, primary screen (AID 488969). The settings on record: HEK293 rat mGluR8, GIRK (G protein-gated inwardly rectifying potassium channel) thallium flux, FluoZin2; at 10 µM; stronger effect = higher value; submaximal glutamate (EC20) added with thallium.
Chain of UniProt P70579 (P70579 whole entry, looked up): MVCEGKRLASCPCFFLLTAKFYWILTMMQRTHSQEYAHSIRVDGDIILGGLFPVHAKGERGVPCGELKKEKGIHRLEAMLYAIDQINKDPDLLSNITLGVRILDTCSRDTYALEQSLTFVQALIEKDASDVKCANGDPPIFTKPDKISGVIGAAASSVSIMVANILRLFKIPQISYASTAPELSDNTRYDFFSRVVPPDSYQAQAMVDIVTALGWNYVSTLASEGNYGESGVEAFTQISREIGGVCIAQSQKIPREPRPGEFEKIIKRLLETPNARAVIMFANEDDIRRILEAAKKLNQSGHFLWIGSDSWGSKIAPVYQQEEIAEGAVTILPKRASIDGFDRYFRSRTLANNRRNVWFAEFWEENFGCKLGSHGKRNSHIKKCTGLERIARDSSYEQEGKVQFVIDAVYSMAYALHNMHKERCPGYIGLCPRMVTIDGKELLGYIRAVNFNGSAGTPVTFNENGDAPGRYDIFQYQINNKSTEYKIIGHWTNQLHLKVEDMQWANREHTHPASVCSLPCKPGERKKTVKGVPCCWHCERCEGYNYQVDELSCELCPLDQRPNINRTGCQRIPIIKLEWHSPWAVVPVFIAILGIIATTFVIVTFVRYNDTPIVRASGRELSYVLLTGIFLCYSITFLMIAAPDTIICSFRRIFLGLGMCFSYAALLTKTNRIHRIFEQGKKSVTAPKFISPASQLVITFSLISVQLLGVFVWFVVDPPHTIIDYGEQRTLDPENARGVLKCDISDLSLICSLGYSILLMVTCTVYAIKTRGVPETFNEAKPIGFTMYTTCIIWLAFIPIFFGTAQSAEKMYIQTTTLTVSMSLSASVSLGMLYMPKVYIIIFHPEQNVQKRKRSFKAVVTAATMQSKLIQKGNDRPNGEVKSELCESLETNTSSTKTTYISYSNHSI
Take `CCOC(=O)C(C)Oc1cccc2c(=O)n(CC(=O)Nc3ccc(OCC)cc3)ccc12` (stereo unspecified): the z-score is -0.623.
Regarding `COc1cc(-n2c(=O)c3ccccc3n(Cc3cccnc3)c2=O)cc(OC)c1OC`, the z-score is -0.352.
For `COCCn1c(-c2ccco2)csc1=Nc1cccnc1` the value was -0.463; for `CCN(C(=O)c1cccs1)c1nnc(-c2ccncc2)s1`, 0.485; for `COc1cccc(-n2c(=O)c3cc(OC)c(OC)cc3n(CC(=O)Nc3cc(C)[nH]n3)c2=O)c1`, -0.124.
`Cc1ccc(C(NC(=O)N2CCOCC2)=C(Cl)Cl)cc1F`: the z-score was -0.011.
Turning to `Cc1ccc(C(=O)Cn2nnc3ccccc32)cc1C`, the z-score is -0.123.
For the compound `CSc1nc2sc3c(c2c(=O)[nH]1)CCCC3`, the z-score was -0.148.
On to `N#C/C(=C(/O)CN1CCCCC1)c1nc(-c2ccc(Cl)cc2)cs1`, for which the z-score was -0.201.
In turn, `O=C(NNc1cccc(Cl)n1)c1ccc(Cl)cc1Cl` returned a z-score of 0.0197.
Turning to `c1cn2c(NC3CCCC3)c(-c3ccc(N4CCOCC4)cc3)nc2cn1`, the z-score is -0.0312.
For `COc1ccc(/C=N/NS(=O)(=O)c2ccc(C)cc2)cc1OC(=O)c1ccc(C)cc1`, the z-score is -0.266.
For `COc1cc(CO)cc(-c2cc(CO)cc(OC)c2OC)c1OC` the value was 0.0452; for `CCOC(=O)c1[nH]c(C)c(/C(O)=C2\C(=O)C(=O)N(CCN3CCOCC3)C2c2cccs2)c1C` (stereo unspecified), -0.0843; for `Cc1cc(C)n2nc(SCC#N)nc2n1`, 0.677.
For the compound `CCNC(=S)N/N=C/c1ccc(-c2ccccc2)o1`, the z-score worked out at 1.09.
As for `COc1ccc(/C=C/C(=O)Nc2ccc(OC)cc2[N+](=O)[O-])cc1`, the z-score is -0.114.
For `COc1ccccc1NS(=O)(=O)c1ccc(O)c(C(N)=O)c1` the value was 0.169; for `CCOC(=O)c1c(C)n(C)c2c(C)cc(O)c(OC(C)=O)c12`, -0.208.
For `CC(=O)c1cccc(NC(=O)CN(c2ccccc2F)S(C)(=O)=O)c1` the value was 0.542.
For `CCOc1ccccc1NS(=O)(=O)c1ccc(OC)c(OC)c1` the value was 0.133; for `O=C(NC(=S)N1CCCc2ccccc21)c1ccc([N+](=O)[O-])cc1`, active: 14.7.
For `CCn1nc(NC(=O)c2ccccn2)c2cc3cc(C)ccc3nc21`, the z-score is -0.417.
Regarding `Cc1nc(N)sc1C(=O)N/N=C/c1c[nH]c2ccccc12`, the z-score was -0.225.
With `O=C(OCc1nnc(-c2ccccc2)o1)C1CCN(S(=O)(=O)c2cccs2)CC1`, the z-score is -1.37.
As to `Nc1ccc(C23CC4CC(CC(CO)(C4)C2)C3)cc1`, the z-score was -0.181.
In turn, `CSc1ncccc1C(=O)Nc1nc2ccc(Oc3ccccc3)cc2s1` showed a z-score of 0.375.
As for `COc1ccc(-c2nc3nc(C)cc(=O)n3[nH]2)cc1`, the z-score is 0.297.
Turning to `Cc1ccc(OCC(=O)Nc2cccc3nsnc23)c(C)c1`, the z-score was -0.0948.
With `Clc1ncnc2c1oc1ccccc12`, the z-score is -0.839.
Compound `CC1CC(C)CN(CC(=O)N2CCc3[nH]c4ccccc4c3C2)C1` (stereo unspecified) gave a z-score of 1.47.
For `Clc1ccc2c(c1)-c1nnc(Br)n1-c1ccccc1S2` the value was active: -4.38; for `Cc1ccc(NC(=O)C2CCN(C(=O)c3ccccc3C)CC2)cc1`, -0.23.
The compound `Cc1ccc(/C=N/N2CCN(c3ccc(Cl)cc3)CC2)o1` came in with a z-score of 0.0242.
With `CCOc1ccc(C(=O)N/N=C/c2ccc(SC)cc2)cc1`, the z-score is -0.152.
For `CC(=O)N(C(C)=O)c1ncc2c([nH]c3ccccc32)c1C#N` the value was 0.191; for `COC(=O)c1cccc(NC(=O)c2cccnc2)c1`, -0.146.
Consider `O=C(NCCN1CCOCC1)NC1(C(F)(F)F)Oc2ccc(Cl)cc2O1` (stereo unspecified), for which the z-score was -0.113.
For `O=C1COc2ccc(C(=O)CSc3nnc(Cc4cccs4)n3-c3ccccc3)cc2N1`, the z-score was -1.26.
The compound `Cc1cc(OCCn2ccnc2)ccc1C(C)C` registered a z-score of 0.0872.
Take `Nc1nc(Nc2ccccc2)nc(NCc2ccco2)c1[N+](=O)[O-]`: the z-score is active: 4.24.
For `CCCN1C(=O)/C(=C/c2ccc(C)o2)SC1=Nc1ccc(OC)cc1` the value was -0.136; for `CC1(C)Cc2c(sc3ncn4nc(-c5ccco5)nc4c23)CO1`, -0.0471; for `CN(C)S(=O)(=O)c1ccc(NC(=O)C2CC3C=CC2C3)cc1` (stereo unspecified), -0.0958.
As to `O=C(COC(=O)Cn1cnc2ccccc21)Nc1ccc2c(c1)OCCO2`, the z-score came out at 0.53.
Regarding `CNC(=O)/C(C#N)=c1\s/c(=C/C(=O)OC)c(=O)n1-c1ccccc1`, the z-score was -0.622.
In turn, `O=C(Oc1ccccc1)c1ccc2nccnc2c1` had a z-score of 0.521.
With `COc1ccc(-c2nc(-c3ccccc3)[nH]c(=O)c2C#N)cc1`, the z-score was -0.382.
In the case of `C=CCn1c(SC2CCOC2=O)nc2sc(CC)cc2c1=O` (stereo unspecified), the z-score is -1.82.
As for `NC(=O)C1CCN(CC(=O)c2c[nH]c3ccc(F)cc23)CC1`, the z-score stood at 1.14.
`O=C(c1cccc2ccccc12)n1nnc2ccccc21` displayed a z-score of 0.0407.
With `Nc1c(S(=O)(=O)c2ccccc2)c2nc3ccccc3nc2n1/N=C/c1ccco1`, the z-score is -1.22.
For the compound `O=C(NCc1nnc(SCC(=O)N2CCC(Cc3ccccc3)CC2)o1)c1ccccc1F`, the z-score is -0.616.
As for `CCOc1ccc2nc(SCc3cccc(C)c3)nc(C)c2c1`, the z-score is -0.0646.
Regarding `CC(C)C(=O)Nc1ncc(C(F)(F)F)cc1Cl`, the z-score is -0.565.
For the compound `CC1CCCC(C)N1C(=O)CSc1nnc(NC(=O)Cc2cccs2)s1` (stereo unspecified), the z-score was -1.05.
With `CC1CCCCN1c1nnc(NC(=O)c2cc(-c3ccc(Br)cc3)on2)s1` (stereo unspecified), the z-score was -0.71.
On to `COc1ccc(N=C(C)C2=C(O)CSC2=O)cc1`, for which the z-score was 0.00819.
`CCCN(CCC)CC(O)CN(c1ccccc1)S(=O)(=O)c1ccc(C)cc1` (stereo unspecified): the z-score stood at 0.182.
On to `O=c1nc(N2CCCCC2)nc(Nc2ccccc2)[nH]1`, for which the z-score is -0.386.
As for `COc1ccc(C(C(=O)Nc2ccc(C(C)C)cc2)N(C)C(=O)CNC(C)=O)cc1` (stereo unspecified), the z-score is -0.0615.
In the case of `Nc1nnn(Cc2ccccc2)n1`, the z-score came out at 0.0628.
Take `Cc1cccc(C(=O)Nc2ccc(NC(=O)Cc3ccc(Cl)cc3)cc2)c1`: the z-score is -0.0593.
Regarding `CC1CN(c2nc3ccccc3nc2C(C#N)C(=O)OC2CCCCC2)CC(C)O1` (stereo unspecified), the z-score was -1.35.
`O=C(NCc1cccs1)c1cc2c(s1)CS(=O)(=O)C2`: the z-score turned out to be 0.722.
With `Cc1ccn2cc(CCNC(=O)CC(C)(C)C)nc2c1`, the z-score is -0.434.
In turn, `CC(NC(=O)Cc1ccc(F)cc1)C(c1cccs1)N1CCN(C)CC1` (stereo unspecified) yielded a z-score of 1.17.
As for `CCCC(c1nnnn1CCc1ccccc1)N1CCN(C2CCCC2)CC1` (stereo unspecified), the z-score is -0.168.
For `Cc1cc(C)nc(SCc2nc3nc(C)cc(C)n3c2Br)n1` the value was -0.879; for `O=C(c1cn(-c2ccccc2)nc1-c1ccc(Cl)s1)N1CCOCC1`, -0.311.
Regarding `O=C(CSc1ncnc2scc(-c3ccccc3)c12)N1CCN(Cc2ccc3c(c2)OCO3)CC1`, the z-score stood at 0.256.
For `CN(C)C(=O)CSc1nnc(-c2cccnc2)n1-c1ccccc1` the value was -0.185.
`CCN1CCN(Cc2ccccc2NC(=O)Nc2ccc(C)cc2)CC1` displayed a z-score of 0.088.
For `O=C(NCC1COCCO1)C1CCN(S(=O)(=O)c2ccccc2)CC1` (stereo unspecified) the value was -0.979; for `O=C1C/C(=C/NCc2ccccc2)C(=O)N1`, -0.148; for `Cc1cccc(NC(=O)CCC(=O)N/N=C/c2ccco2)c1`, 0.372.
For `COc1ccccc1C(=O)C1Nc2ccccc2-c2nnc(SC)nc2O1` (stereo unspecified) the value was -1.1; for `CCCOc1cccc(C(=O)N(Cc2ccco2)C2CCS(=O)(=O)C2)c1` (stereo unspecified), 0.188.
For `COc1ccc(Oc2ccc(N/C=C3/CCCC3=O)cc2)cc1`, the z-score is -0.315.
Compound `CCSC1=N/C(=C\c2cccnc2)C(=O)N1c1ccccc1` yielded a z-score of 0.105.
Turning to `O=C(/C=C/c1cccc([N+](=O)[O-])c1)NC1CC2CCC1C2` (stereo unspecified), the z-score was -0.175.
Take `Cc1sc2nc(CN3CCCC3)nc(Cl)c2c1C`: the z-score is -0.0264.
Consider `O=C(NCc1ccc2c(c1)OCO2)c1cccc(S(=O)(=O)N2CCCCC2)c1`, for which the z-score is -1.37.
Take `O=C(Nc1nccc(-c2cccs2)n1)c1cccs1`: the z-score is -0.00264.
In the case of `COc1ccc(-c2nc3c(n2O)CCCC3=O)cc1OC`, the z-score is -2.03.
For `Cc1cc(NC(=O)C2CC(=O)OC2c2ccccc2)no1` (stereo unspecified) the value was -0.759.
For `Cc1ccc2[nH]c(=O)c(CN(CCCN(C)C)C(=O)Nc3cccc(Cl)c3)cc2c1` the value was 0.323.
For `Cc1ccc(N2C(=O)C(Cl)=C(N3CCOCC3)C2=O)cc1Cl`, the z-score was -0.0801.
Consider `Cc1ccccc1CSCCNC(=O)COc1ccc(Cl)cc1`, for which the z-score came to 0.0526.
As for `O=C(CN(C(=O)Cn1nnc(-c2cccs2)n1)c1ccc2c(c1)OCCO2)NCc1ccccc1`, the z-score is -0.285.
Turning to `CC(C)NC(=O)COc1ccc(Cl)cc1Cl`, the z-score is 0.189.
For `Cc1cc(C)n2nc(S(=O)(=O)NC3CCCCC3)nc2n1` the value was -0.0512; for `CSc1ccccc1NC(=O)CN(Cc1ccccc1)S(C)(=O)=O`, 0.0694.
For the compound `CC(C)CC(=O)NC(=S)Nc1cc(C(F)(F)F)ccc1N1CCOCC1`, the z-score was -0.0669.
`CCOC(=O)c1ccccc1NC(=O)C(C)Oc1ccccc1` (stereo unspecified): the z-score was -0.886.
For `COc1ccccc1Nc1nc(N)nc(CN(C)C2CCCCC2)n1`, the z-score is -0.0931.
As for `CCc1nnc(NC(=O)C=C(C)C)s1`, the z-score amounted to 0.0557.
Turning to `CCSc1nc2ccc(N3C(=O)C4C5C=CC(C5)C4C3=O)cc2s1` (stereo unspecified), the z-score was -0.716.
As to `O=C(CCC1COc2ccccc2O1)NC1CCCCC1` (stereo unspecified), the z-score was -0.137.
For `CCOc1ccc(-n2ccnc2SCC(=O)Nc2nnc(CC)s2)cc1` the value was 0.544; for `CCc1nc(C)cn1S(=O)(=O)c1ccc(Cl)c(Cl)c1Cl`, -0.112; for `O=c1ccc2cc3c([nH]c4ccc(Br)cc43)oc-2c1O`, 0.498.
As for `Fc1ccc(-c2ccnc3nc(-n4cccc4)nn23)cc1`, the z-score is -0.783.
For `Cc1ccc2c(Cl)c(C(=O)NCC3CCCO3)sc2c1` (stereo unspecified) the value was -0.23; for `COc1cc(C2C(C#N)=C(N)Oc3c2ccc2ccccc32)ccc1OCC(=O)Nc1cccc(C)c1` (stereo unspecified), -0.227; for `CCCCNC(=S)Nc1cc([N+](=O)[O-])ccc1C`, 0.706.
With `O=C(NCCc1csc(-c2ccc(C(F)(F)F)cc2)n1)c1cccs1`, the z-score is -0.803.
For the compound `N#CC1=C(S)N(c2ccc(F)cc2)C(c2cccs2)NC1=O` (stereo unspecified), the z-score is -0.67.
Regarding `COc1ccc(-n2cnc3c(sc4nccc(N(C)C)c43)c2=O)cc1`, the z-score was -0.816.
For `O=C1N=C2SCCN2/C1=C\c1ccc(Cl)cc1` the value was -0.672; for `O=C(NC(=S)Nc1nc2c(s1)CSc1ccccc1-2)c1ccccc1`, 0.384; for `CCCCOC(=O)CN1C(=O)c2ccc(C(=O)OCCCC)cc2C1=O`, -0.415.
For `CC(=O)Nc1nc(C)nc(-c2ccccc2OC(C)=O)n1`, the z-score was -0.381.
Regarding `CCCC(=O)NCc1nc2ccccc2n1C`, the z-score was -0.196.
With `Cc1cc(=O)[nH]c(SCC(=O)C23CC4CC(CC(C4)C2)C3)c1C#N`, the z-score was -0.0485.
Consider `COc1ccccc1CNC(=O)c1c(N)n(CCCN2CCOCC2)c2nc3ccccc3nc12`, for which the z-score turned out to be 1.66.
